Assay results reported in PMC7795627.
These are yes or no findings as the source states them, for the method shown. Binding seen in cells or lysates may run through a third protein. Some results given as binding are weak or reduced against the parent protein; the word gives no strength. Each block holds one molecule with its values, some of them ahead of it.

What was measured:
[1] = target: T156R CST variant (human) (UniProt P78382); experiment: split reporter; NanoBiT luminescence in living CST-deficient HEK293T cells co-transfected with N-terminal SmBiT and LgBiT fusions of the same CST variant; control: LgBiT-CST with SmBiT-HaloTag; only a signal at least 10-fold over the control counted as an interaction
[2] = target: double T156R/E196K CST mutant (human) (UniProt P78382); experiment: as above
[3] = target: E196K CST variant (human) (UniProt P78382); experiment: as above
[4] = target: Q101H CST variant (human) (UniProt P78382); experiment: as above
[5] = target: T1, wild-type human CMP-sialic acid transporter (human), P78382; experiment: as above; details: remark: other sources report otherwise
T1 chain: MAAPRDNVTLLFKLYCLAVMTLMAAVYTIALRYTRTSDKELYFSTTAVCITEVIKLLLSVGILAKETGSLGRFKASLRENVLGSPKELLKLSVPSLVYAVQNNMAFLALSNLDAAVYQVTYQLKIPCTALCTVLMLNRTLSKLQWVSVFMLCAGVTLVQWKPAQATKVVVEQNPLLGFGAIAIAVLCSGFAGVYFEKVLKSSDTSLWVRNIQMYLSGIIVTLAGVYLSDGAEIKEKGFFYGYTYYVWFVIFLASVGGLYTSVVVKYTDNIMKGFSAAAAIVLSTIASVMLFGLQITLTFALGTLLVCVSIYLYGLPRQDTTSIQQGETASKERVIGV

[6] = target: T1, wild-type human CMP-sialic acid …; experiment: split reporter; bioluminescent imaging (LV200) of living wild-type HEK293T cells transfected with LgBiT and SmBiT fusions of wild-type CST, 250 ng of each plasmid; details: remark: other sources report otherwise

Molecule: double T156R/E196K CST mutant (from UniProt P78382 1-337)
binding [2]: binds

Molecule: E196K CST variant (from UniProt P78382 1-337)
binding [3]: no binding

B1: wild-type human CMP-sialic acid transporter, P78382 1-337 (protein)
chain: MAAPRDNVTLLFKLYCLAVMTLMAAVYTIALRYTRTSDKELYFSTTAVCITEVIKLLLSVGILAKETGSLGRFKASLRENVLGSPKELLKLSVPSLVYAVQNNMAFLALSNLDAAVYQVTYQLKIPCTALCTVLMLNRTLSKLQWVSVFMLCAGVTLVQWKPAQATKVVVEQNPLLGFGAIAIAVLCSGFAGVYFEKVLKSSDTSLWVRNIQMYLSGIIVTLAGVYLSDGAEIKEKGFFYGYTYYVWFVIFLASVGGLYTSVVVKYTDNIMKGFSAAAAIVLSTIASVMLFGLQITLTFALGTLLVCVSIYLYGLPRQDTTSIQQGETASKERVIGV
binding [5]: binds
binding [6]: binds

Next, values leading:

binding [1]: binds
Molecule: T156R CST variant (from UniProt P78382 1-337)

binding [4]: no binding
Molecule: Q101H CST variant (from UniProt P78382 1-337)
